# Data from PubChem BioAssay AID463173 (ICCB-Longwood Screening Facility, Harvard Medical School, 2010).
# About 1,700 (3.3%) of roughly 52,000 compounds were called active. Rule as the data show it: active = survival mostly below about 52% (no sharp cut-off); inactive = mostly above about 56%. This is one part of the list.
# Tested on: Wild type
# Assay: growth inhibition of S. aureus wild type versus tarO mutant, primary screen, teichoic acid synthesis inhibitors, RN4220, OD600 (AID 463173)
# Conditions: S. aureus RN4220 wild type/DeltatarO growth, OD600, 18 h, active compounds read low, screened at 18.75 µg/mL (by protocol)
row,Structure (SMILES),survival
1,CCCCC(=O)N1CCc2cc(OC)c(OC)cc2C1COc1ccc(C(=O)OCC)cc1 (stereo not given),inactive: 65%
2,COC(=O)c1scc(-c2ccc(C)cc2)c1S(=O)(=O)N1CCN(c2ccc(F)cc2)CC1,active: -6%
3,Nc1c(C(=O)NCc2cccs2)nnn1CC(=O)Nc1cccc(F)c1,inactive: 101%
4,Cc1cc(C)cc(-n2ccn(CC(=O)c3ccc(F)cc3)c(=O)c2=O)c1,inactive: 114%
5,O=C(NC1CCCCC1)c1ccc(CSc2nc3cccnc3n2Cc2cccc(F)c2)cc1,inactive: 88%
6,CCC1CCCCN1C(=O)c1c[nH]c2ccc(S(=O)(=O)Nc3cccc(OC)c3)cc2c1=O (stereo not given),inactive: 65%
7,O=C(NCc1ccco1)c1ccc2c(c1)N(Cc1ccccc1)C(=O)c1ccccc1S2,inactive: 82%
8,Cc1cc(C)c(S(=O)(=O)NCCc2sc3nc(-c4ccc(F)cc4)nn3c2C)c(C)c1,inactive: 63%
9,COC(=O)c1ccc(CSc2c(C(C)C)cnc3c2c(=O)n(C)c(=O)n3C)cc1,inactive: 73%
10,CCOc1ccc(NC(=O)CCc2c(C)nc3cc(-c4ccccc4OC)nn3c2C)cc1,inactive: 76%
11,O=C(c1ccc(CS(=O)(=O)c2ccc(Br)cc2)o1)N1CCN(c2ccc(F)cc2)CC1,inactive: 126%
12,Cc1ccc(NC(=O)c2sc3ncnc(N(C)C4CCCCC4)c3c2C)c(C)c1,inactive: 74%
13,O=C(O)c1ccc(NS(=O)(=O)c2ccc(Cl)c(C(=O)Nc3ccccc3)c2)cc1,inactive: 74%
14,Cc1c(NC(=O)Nc2ccc(Cl)c(Cl)c2)sc2nc3n(c(=O)c12)CCC(C)CC3 (stereo not given),inactive: 88%
15,Cc1ccc(N(C)S(=O)(=O)c2ccc3[nH]c(=O)ccc3c2)cc1,inactive: 77%
16,O=C(Nc1nc2n(n1)C(c1ccc(F)cc1)C=C(c1ccc(Cl)cc1)N2)c1ccc([N+](=O)[O-])cc1 (stereo not given),inactive: 48%
17,N#C/C(=C\c1ccc(OCc2ccc(Cl)cc2Cl)cc1)c1nc2ccccc2[nH]1,inactive: 142%
18,Cc1oc2c(cc(NS(=O)(=O)c3ccc(C(C)C)cc3)c3ccccc32)c1C(=O)OCc1ccccc1,inactive: 105%
19,Cc1cccc(C2=Nc3ccccc3N=C(c3cc(Cl)ccc3O)C2)c1,inactive: 34%
20,COc1ccc(OC)c(CNC(=O)c2cc3c(Cl)nc4ccccc4c3s2)c1,inactive: 75%
21,Cc1cccc(NC(=O)/C(C#N)=C/c2ccco2)c1,inactive: 73%
22,CCCNC(=O)Cn1nc(-c2ccc(OC)cc2)c2cnc3ccc(F)cc3c21,inactive: 73%
23,CC(=O)Nc1c(C(=O)O)oc2ccc(Cl)cc12,inactive: 103%

row,Structure (SMILES),survival
1,O=C(Nc1cccc(Br)c1)N1CCN2CCCCC2C1 (stereo not given),inactive: 88%
2,COc1ccccc1CC(=O)Nc1ccc2nc(Nc3cccc(C(F)(F)F)c3)cc(C)c2c1,inactive: 81%
3,CCOc1ccc(-n2c(C)nc3cc(C(=O)NC4CCCC4)ccc32)cc1,inactive: 67%
4,COc1ccc(CNC(=O)Cn2c(=O)n3nc(-c4ccc(OC)cc4)nc3c3ccccc32)cc1,inactive: 76%
5,O=C(COc1ccc(S(=O)(=O)NCc2ccccc2)cc1Cl)N1CCOCC1,inactive: 112%
6,CC(=O)c1cccc(NS(=O)(=O)c2ccc3[nH]c4c(c3c2)CCCCC4)c1,inactive: 112%
7,Cc1cn2c(=O)c(S(=O)(=O)Nc3ccc(OC(F)(F)F)cc3)c(C)nc2s1,inactive: 114%
8,COc1ccc(NC(=O)C(c2ccccc2)N(C)C(=O)/C=C\c2ccc3c(c2)OCO3)cc1 (stereo not given),inactive: 80%
9,COc1ccc(-c2noc(CSc3nnc(C)n3-c3ccc(F)cc3)n2)cc1,inactive: 84%
10,COc1ccc(C(CC(=O)Nc2cc(Cl)c(OC)cc2OC)N2Cc3ccccc3C2=O)cc1 (stereo not given),active: -3%
11,COc1ccc(-c2c(C)nn3c(C(F)(F)F)cc(-c4ccc(C)cc4)nc23)cc1,inactive: 93%
12,Cn1c(COc2ccccc2Br)nc2ccccc21,inactive: 106%
13,CCOc1ccc(C(=O)Nc2ccc3nc(Nc4cccc(C(F)(F)F)c4)cc(C)c3c2)cc1OCC,inactive: 88%
14,CCSc1nnc(C2CCCN(CC(=O)NC3CCCCC3C)C2)n1CC (stereo not given),inactive: 125%
15,Cc1ccc2cc(C#N)c(SCC(=O)Nc3ccccc3N3CCOCC3)nc2c1C,inactive: 102%
16,Cc1ccccc1OCC(=O)Nc1c(C(=O)Nc2ccccc2F)oc2ccccc12,inactive: 127%
17,CC(=O)NNc1ncnc2c1cnn2-c1ccccc1,inactive: 64%
18,CCOc1ccc(NC(=O)N2CC3CCCN3c3ccccc32)cc1 (stereo not given),inactive: 81%
19,C=CCNC(=S)/N=c1\sccn1C,inactive: 88%
20,COC(=O)c1cnc(N2CCN(c3ccc(OC)cc3)CC2)c2ccccc12,inactive: 83%
21,Cc1ccccc1NS(=O)(=O)c1ccc2[nH]cc(C(=O)NCCc3ccccc3)c(=O)c2c1,inactive: 74%
22,CCOC(=O)c1ccc(NC(=O)CS(=O)(=O)Cc2nc(-c3ccc(C)cc3)oc2C)cc1,inactive: 87%
23,CCCCc1ccc(NC(=O)CSc2nc3ccccc3nc2N2CCCCC2)cc1,inactive: 41%

row,Structure (SMILES),survival
1,CCCNC(=O)CCc1c(C)nc2nc(CNC(=O)c3ccccc3)nn2c1C,inactive: 84%
2,COC(=O)c1c(-c2ccc(Cl)cc2)noc1N1CCN(c2ccc(C(C)=O)cc2)CC1,inactive: 68%
3,Cc1ccc(F)cc1NC(=O)CSc1nc(-c2cccs2)cc(C(F)(F)F)n1,inactive: 92%
4,CCOc1ccc(NC(=O)C(CC)n2nc(C)c3c(C)n(-c4ccccc4)nc3c2=O)cc1 (stereo not given),inactive: 79%
5,COc1ccc(NC(=O)c2oc3ccccc3c2NC(=O)c2cc3ccccc3o2)c(OC)c1,inactive: 86%
6,COc1ccc(-c2csc(NC(=O)C(C)C)n2)cc1,inactive: 104%
7,CCOc1ccc(NC(=O)CSc2nnnn2C2CCCC2)cc1,inactive: 103%
8,Cc1ccc(NC(=O)CN2C(=O)CC(c3ccco3)Sc3ccccc32)cc1Cl (stereo not given),inactive: 83%
9,O=C1OC2(CCCC2)OC(=O)C1=CNc1ccccc1,inactive: 93%
10,COc1cc(OC)cc(-n2c(=O)c3sccc3n(Cc3ccc(F)cc3)c2=O)c1,inactive: 149%
11,C=CCNC(=O)c1cc2n(n1)C(C(F)(F)F)CC(c1ccco1)N2 (stereo not given),inactive: 95%
12,COc1cc(OC)c(NC(=O)Nc2ccc3c(c2)N(C)C(=O)c2ccccc2S3)cc1Cl,inactive: 120%
13,Cc1ccc(-c2onc(C)c2C)cc1S(=O)(=O)N1CCN(c2ccccc2F)CC1,inactive: 87%
14,CCOc1ccccc1CNC(=O)c1ccc(-n2c(C)cc3c2CCC(C)C3)cc1 (stereo not given),inactive: 97%
15,COC(=O)c1ccccc1NC(=O)CCCn1nc(C)c2c(C)n(-c3ccccc3)nc2c1=O,inactive: 74%
16,COc1cccc(NC(=O)CCNC(=O)Cn2cnc3ccccc3c2=O)c1,inactive: 67%
17,CCn1c2ccccc2c2cc(CN3CCN(Cc4cccc(Cl)c4)CC3)ccc21,active: 0%
18,COc1cc(C(CC(=O)NCc2ccccc2Cl)N2Cc3ccccc3C2=O)cc(OC)c1OC (stereo not given),inactive: 89%
19,COc1ccc(CCNC(=O)CN2C(=O)COc3ccc(S(=O)(=O)N4CCCC4)cc32)cc1OC,inactive: 81%
20,Cc1ccc(Cl)cc1N1CCN(c2nc3ccccc3c3nc(-c4cccnc4)nn23)CC1,inactive: 123%
21,Cc1ccc(CNC(=O)c2cc(-c3ccc(C)c(C)c3)nc3ccccc23)cc1,inactive: 81%
22,Cc1ccc(C(=O)O)cc1NC(=O)c1nsc2ccccc12,inactive: 74%
23,COc1ccc(-c2csc(C)n2)cc1,inactive: 104%

row,Structure (SMILES),survival
1,Cc1ccc(NC(=O)C(=O)NCC(c2cccnc2)N2CCN(Cc3ccccc3)CC2)cc1Cl (stereo not given),inactive: 79%
2,C/C=N/NC(=O)CSc1nc2ccccc2s1,inactive: 107%
3,CCCOc1ccc(Oc2nc(NC)nc(N3CCOCC3)n2)nn1,inactive: 106%
4,COC(=O)c1sc(N2C(=O)c3oc4ccc(C)cc4c(=O)c3C2c2ccc(OC)cc2)nc1C (stereo not given),inactive: 134%
5,Cc1cc(Cl)ccc1NC(=O)CSc1nc2c(c(=O)[nH]1)CCC2,inactive: 80%
6,O=C(CCSc1nnc(-c2ccco2)o1)Nc1ccccc1,inactive: 97%
7,CCOc1ccc(CCNC(=O)Cn2nc(CC)n3c(cc4sccc43)c2=O)cc1,inactive: 123%
8,Fc1ccc(Cn2c(-c3cccc(Br)c3)nc3ccccc32)cc1,inactive: 120%
9,Cc1nn2c(C)c(C(=O)NCC(C)c3ccccc3)cnc2c1-c1ccccc1 (stereo not given),inactive: 75%
10,O=C(Nc1c2c(nn1-c1ccc(Cl)cc1)CS(=O)(=O)C2)c1ccccc1F,inactive: 73%
11,O=C(NCCc1nc2ccccc2n1CCCOc1ccc(Cl)cc1)C1CCCCC1,active: 10%
12,COc1ccc(C(=O)Nc2noc3ccccc23)cc1,inactive: 73%
13,CCN(CC)c1ccc2cc(C(=O)Nc3ccc(NC(C)=O)cc3)c(=O)oc2c1,inactive: 100%
14,Cc1cccc(NC(=O)CSc2nccn2-c2cccc(Cl)c2)c1C,inactive: 58%
15,CCC(C(=O)NCc1ccccc1Cl)n1nc(C)c2sc3ccccc3c2c1=O (stereo not given),inactive: 104%
16,Cc1ccc(NC(=O)c2sc(-n3nc(C)c(Cc4ccc5c(c4)OCO5)c3C)nc2C)cc1C,inactive: 124%
17,C=CCC(NCc1ccco1)c1ccccc1 (stereo not given),inactive: 106%
18,CCOc1cc(C2c3c(-c4ccccc4O)n[nH]c3C(=O)N2Cc2cccnc2)ccc1O (stereo not given),inactive: 89%
19,Cc1cc(C)cc(NC(=O)CSCc2cc(=O)c3ccc(C)c(C)c3[nH]2)c1,inactive: 74%
20,CNS(=O)(=O)c1cn(CC(=O)N2CCN(c3cc(C)ccc3C)CC2)cc1S(=O)(=O)NC,inactive: 83%
21,CS(=O)(=O)N1CCN(S(=O)(=O)c2ccccc2)CC1,inactive: 100%
